# Results published in the supplement of paper PMC3724861.
# The list shows a part of the results.
# System: T1, Caupolican (Caup) homeodomain DNA-binding domain
# T1 sequence: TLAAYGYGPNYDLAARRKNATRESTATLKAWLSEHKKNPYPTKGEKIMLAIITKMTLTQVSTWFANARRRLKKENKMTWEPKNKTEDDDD
# Assay: PBM E-score (8-mer, recovered from the published 9-mer minima) (E-score (dimensionless, -0.5 to 0.5)); Drosophila protein; higher = stronger relative binding preference, active = 0.31 or more
# Summary of the method: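 An enrichment score, with higher meaning stronger, expresses relative binding preference for each short DNA word. The protein used was Caup's homeodomain DNA-binding domain (residues 214-303), produced by in vitro transcription and translation and tested at 100 nM on custom-designed protein binding microarrays. The 8-mer values were recovered from published 9-mer scores, each equal to the lower of its two constituent 8-mer scores.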
row,Sequence,PBM E-score
1,CACGGATA,inactive: 0.128
2,ACTTCATA,inactive: 0.0382
3,AATAGCCG,inactive: -0.0448
4,GCTATTGA,inactive: 0.087
5,CATTGTTC,inactive: 0.184
6,AAAGTGCC,inactive: -0.0124
7,CAATGACC,inactive: 0.065
8,GCGTGATA,inactive: 0.03
9,CTGAGGTA,inactive: 0.00332
10,CACTAAGG,inactive: -0.0674
11,ACACATAT,active: 0.323
12,AAACCGAA,inactive: 0.0763
13,CCAAATTA,inactive: 0.122
14,CCCTAACG,inactive: -0.192
15,CCACTTTA,inactive: -0.0164
16,GCGTGTTA,inactive: 0.284
17,AACATCCG,inactive: 0.252
18,AACTTTGC,inactive: -0.0381
19,CGAGTTTA,inactive: -0.0356
20,GTTGCTTA,inactive: 0.145
21,ATGCCGGG,inactive: -0.193
22,ATGAGCAG,inactive: 0.00627
23,ACTTTGCG,inactive: -0.0437
24,ACCATCCG,inactive: -0.0224
25,TCAGCTGA,inactive: -0.00984

row,Sequence,PBM E-score
1,ACCCATCG,inactive: -0.0141
2,CCTACACA,inactive: 0.157
3,AAAAGAGA,inactive: -0.0242
4,AATTATAC,inactive: 0.202
5,AGACAACG,inactive: 0.231
6,CGGATGAG,inactive: -0.0715
7,ACGGTAGA,inactive: -0.0784
8,CCGAGGAA,inactive: -0.109
9,ACGTGTCT,inactive: 0.244
10,CATGTAAG,active: 0.395
11,CTAAGGCC,inactive: -0.194
12,AATCCACT,≥ 0.084
13,GCCTCGCA,inactive: -0.166
14,AGAAGCAA,inactive: 0.0893
15,AACCGCTC,inactive: -0.0871
16,AGAGATCG,inactive: -0.0426
17,CACAAGTA,inactive: 0.205
18,CCCAACCG,inactive: -0.162
19,AGGATTGG,inactive: -0.0154
20,ACACACTG,inactive: 0.151
21,CGACTTCA,inactive: -0.0231
22,ACAATACG,inactive: 0.0886
23,ACTTTTGA,inactive: 0.0445
24,ACCATCGC,inactive: -0.0978
25,CACTTATA,inactive: 0.051

row,Sequence,PBM E-score
1,TCTTAGAA,inactive: -0.0146
2,GGAGAGTA,inactive: -0.106
3,CTGCCAGC,inactive: -0.207
4,CCAGAGTA,inactive: -0.0813
5,ACTGCAAG,inactive: 0.0565
6,AAGTAGGT,inactive: 0.0353
7,ATGCGGGA,inactive: -0.0659
8,CTCCTATC,inactive: -0.0311
9,ATTTTAAA,inactive: 0.0627
10,GTGTAAAA,inactive: 0.266
11,AGTGCTTA,inactive: 0.0428
12,GTTGGGCA,≥ 0.0223
13,CTTGCCAC,inactive: -0.0874
14,AGTGGGCC,inactive: -0.141
15,GGTCTATA,inactive: 0.11
16,AATACACT,inactive: 0.192
17,GCCTTTAC,inactive: -0.00546
18,GGTATTGA,inactive: 0.058
19,AAATCGTT,inactive: 0.118
20,CCAGGCAG,inactive: -0.259
21,CCCTGCCA,inactive: -0.21
22,CCCGTTTA,inactive: -0.0295
23,CACCCCAA,inactive: 0.0252
24,ACAAATAG,inactive: 0.191
25,TACCTTAA,inactive: -0.0969

row,Sequence,PBM E-score
1,GACTATAC,inactive: 0.118
2,CCGTATAA,inactive: 0.0639
3,CCGGGGGC,inactive: -0.256
4,ACAGAGCT,inactive: 0.0369
5,CAGTCAGA,inactive: -0.00429
6,ATTAAGAA,inactive: 0.0216
7,ATCCAGAA,≥ 0.135
8,AATAAGGC,inactive: -0.0579
9,GAGAAATA,inactive: 0.0408
10,ATCGCCTA,inactive: -0.0684
11,GGGTACCA,≥ 0.0519
12,ACAGAGTA,≥ 0.116
13,CAGTCTGA,inactive: -0.0233
14,ATTCTCCC,inactive: -0.0331
15,GGACCTCC,inactive: -0.253
16,GCATTAGC,inactive: -0.144
17,CGGTCGAA,inactive: -0.0675
18,AAGTCAAG,inactive: -0.0582
19,CTTTGAAC,inactive: -0.0716
20,TCAAACAA,inactive: 0.202
21,ATGTTCTG,inactive: 0.279
22,CCATTCCG,inactive: -0.112
23,AGCGCAAC,inactive: -0.105
24,CACTTCAC,inactive: 0.0187
25,CGGATTGC,inactive: -0.0688

row,Sequence,PBM E-score
1,AACATGTA,active: ≥ 0.48
2,AATCTTAT,inactive: 0.0958
3,ACTTGAGA,inactive: 0.0185
4,AATGTAGT,inactive: 0.281
5,TCTACAAA,inactive: 0.218
6,TGTGTGAA,inactive: 0.14
7,AGGTGGCG,inactive: -0.0903
8,ACCTTGGG,inactive: -0.106
9,AGCAATAC,inactive: 0.0839
10,ACTTTCCG,inactive: -0.0376
11,CGTGAGCC,inactive: -0.163
12,CAGTTCGG,inactive: -0.0674
13,ATGTGTCG,inactive: 0.262
14,CACCTCTC,inactive: -0.147
15,CTAAGATA,inactive: 0.0774
16,AGTTTATG,inactive: 0.0709
17,TCATGAAA,inactive: -0.0194
18,GAGCCGGC,inactive: -0.252
19,AAAGTTCC,inactive: -0.0598
20,CACAAATC,inactive: 0.0529
21,CATTGGTC,inactive: -0.0725
22,GGGGTGGA,inactive: -0.141
23,AACGAAAG,inactive: -0.0333
24,GTTTTCGA,inactive: 0.00741
25,AGTAGATC,inactive: 0.0726

row,Sequence,PBM E-score
1,CTGAGTGA,inactive: 0.0591
2,AAGTCCCA,inactive: -0.0878
3,AATATTCA,inactive: 0.152
4,CAACAGTA,inactive: 0.0987
5,CGGGACCA,inactive: -0.151
6,AATTTCAT,inactive: 0.133
7,CACTGCTG,inactive: -0.106
8,CATTTGAG,inactive: 0.0594
9,ATTCCCCG,inactive: -0.0419
10,GCTGTCGA,inactive: 0.0469
11,CCCTATCC,inactive: -0.157
12,CACTTACA,inactive: 0.243
13,AAAGAAAT,inactive: 0.0689
14,GGGGCTCA,inactive: -0.244
15,AAAAAGCG,inactive: -0.101
16,ACCGACAA,inactive: 0.13
17,GTAAGGTA,≥ 0.165
18,ATTCTACG,inactive: 0.0692
19,GCGCCGCC,inactive: -0.263
20,GTGTACTA,active: 0.34
21,GTCGGAAA,inactive: 0.0805
22,AATACGGG,inactive: -0.045
23,CGCCCGTC,inactive: -0.241
24,AAGACCTA,inactive: -0.037
25,ACAGCGCC,inactive: -0.0581

row,Sequence,PBM E-score
1,CTCGGGTA,inactive: 0.0492
2,ACAGGTCA,inactive: 0.136
3,ACCTTCTG,inactive: 0.0175
4,ATGAGCCG,inactive: -0.122
5,AGAGTATA,inactive: 0.0771
6,GAGTTCCC,inactive: -0.1
7,AAACCCCC,inactive: -0.234
8,CTATCTCA,inactive: -0.0226
9,AGACTTTC,inactive: 0.013
10,ACATAATC,inactive: 0.202
11,CAAGCTTG,inactive: -0.0318
12,ATGCCCTG,inactive: -0.0861
13,CAGTTCTC,inactive: -0.0392
14,GATGCGTA,inactive: -0.00072
15,AGAGGAAT,inactive: -0.0742
16,GTAGACAA,active: 0.313
17,GCGTATAA,inactive: -0.0488
18,CATATTCG,inactive: 0.0718
19,TGAACCAA,inactive: 0.0932
20,AAATCAAA,inactive: 0.11
21,ATCGCTAC,inactive: 0.0384
22,AGTTACCG,inactive: 0.0818
23,ACGGTATG,inactive: 0.0358
24,AGTTTGTC,inactive: 0.073
25,CGCGCTCC,inactive: -0.156

row,Sequence,PBM E-score
1,GAGTGCTA,inactive: 0.0592
2,AACTCCGG,inactive: -0.121
3,ATCTATAG,inactive: 0.0725
4,ACATCAAG,inactive: 0.227
5,CTGATCCA,≥ 0.0971
6,GCTATTCC,inactive: -0.026
7,CGTCCTTA,inactive: -0.0328
8,GCGGGTCC,inactive: -0.275
9,GCCCCACA,inactive: -0.178
10,AAAGAGCG,inactive: -0.0636
11,AACAAGCC,inactive: 0.176
12,GAATTGAC,inactive: 0.0767
13,CCAGGGCG,inactive: -0.254
14,ATGCCTTG,inactive: 0.0116
15,CTCCACGA,inactive: -0.149
16,ACATCTGG,inactive: 0.119
17,GAAGGAGC,inactive: -0.236
18,CTGGCTCA,inactive: -0.111
19,CGTGGGAC,inactive: -0.109
20,TCGAACAA,inactive: 0.259
21,AATATAGG,inactive: 0.0868
22,CTTGTGTA,active: ≥ 0.341
23,CCGAAAGA,inactive: -0.0463
24,CGCATCGC,inactive: -0.22
25,CCCTTCTC,inactive: -0.19

row,Sequence,PBM E-score
1,GAATCTCC,inactive: -0.0908
2,ACCTCCTC,inactive: -0.067
3,CCGTTCAC,inactive: -0.0842
4,GAAGGTCA,inactive: -0.0224
5,CCTACGAA,inactive: -0.0261
6,CACCGGTG,inactive: -0.117
7,CGACGGAG,inactive: -0.157
8,ATTGATGG,inactive: 0.0561
9,ATCGTCGC,≥ 0.0107
10,CAGCGCGG,inactive: -0.0615
11,CTAGTAAC,inactive: 0.149
12,GACAATAA,inactive: 0.14
13,CGACACTC,inactive: 0.0187
14,ATCCTCCG,inactive: -0.0647
15,GCGCTCCA,inactive: -0.217
16,CCTACTCC,inactive: -0.0436
17,GACCCGCA,inactive: -0.135
18,GAGGGGAA,inactive: -0.104
19,CGATTCTC,inactive: -0.0766
20,ACGTACTA,≥ 0.193
21,GGCCCACC,inactive: -0.32
22,AGACCCCT,inactive: -0.143
23,ATCAATGA,≥ 0.193
24,ATTAAACC,inactive: 0.103
